The record followed here is the RNAGym collection of RNA variant scans (doi:10.7554/elife.90254).

B1: OR4K15 (parent)
chain: GUUAACGGUCAUAGGCCAUGGAAACUAGGAGCACCAUUUCGCUGCCAGUGAAGAAAUGAACAAAGAAAAUCUGGGCCAGGCAGGCAUCAAAAGAAAUAGUCUUGCGCUCAACCAGAAAGUCUGUAAUCAUUUUAAGGGUA

Read counts are not given, so values of variants with three or more changes are uncertain.

This data set covers variants of B1. The data set can be described thus: self-cleavage, relative activity (ratio to wild type); higher = more cleavage; in vitro, sequencing; the parent is a self-cleaving ribozyme.
Take A78G A95G A114G: the self-cleavage is 0.08.

With G74A U102C A111G, the self-cleavage was 0.01.

As for U72A A78U A140C, the self-cleavage is 0.14.

With A89G A114G A134U, the self-cleavage was 0.44. Consider G73A C85U A92G, for which the self-cleavage was found to be 0.28. On to A91G U103C A116G U122C U124A, for which the self-cleavage is 0.06. The value for G79A A118G U139C was 0.06; that for A86U A116G A117C was 0.32. Take A82U G83A A89G U127A: the self-cleavage was determined as 0.1.

A82C A86G U100C U122A: the self-cleavage was determined as 0.35.

Regarding A86U U100C U130C, the self-cleavage came out at 1.81. As for G79A U87C A125G, the self-cleavage came out at 0.04. Take C71U A126G U127C: the self-cleavage was 0.08.

Take U72A A117U U131C: the self-cleavage worked out at 0.04. The value for A78G C101A U103G U124C was 0.01; that for U87A U103A A116G A117G A118U was 0.13.

As for A78G A111G U132C, the self-cleavage turned out to be 0.02. To A90G U97C C109U A135U belongs 0.21; to A91U U124A A126G, 0.79. With A78G U102C A129G, the self-cleavage worked out at 0.23. Consider U72C A94G U102C U132C, for which the self-cleavage worked out at 0.49. A90G A91G U120A: the self-cleavage came to 1.81. The value for A86G A111G U139C was 0.01. Turning to U72A U102C A110G, the self-cleavage amounted to 0.05. For U72C U103C A111G A140G, the self-cleavage was determined as 0.01. Regarding A82U A92G A110G A126G, the self-cleavage was found to be 0.03. As for U87A U131C G137A, the self-cleavage worked out at 0.7. With A82G G83A U97C, the self-cleavage was found to be 0.67.

In the case of A89G U103C A134G, the self-cleavage came to 0.43. On to G84C A92U U100A U108C U127C U139A, for which the self-cleavage worked out at 0. On to A78G A117G A126G, for which the self-cleavage came to 0.15. Consider A89U A126G U127A, for which the self-cleavage stood at 0.59. In the case of A94G C113U U122C, the self-cleavage turned out to be 0.03. As to A82U A94G C113U A114U G123A U130C, the self-cleavage was determined as 0. The value for A82G U87C A91G A96G U139A was 0.14; that for A82U A92G U97C A110C U139C was 0.02; that for A90G U100A A117G was 0.5. As to C76A A110G A117G, the self-cleavage was 0.04. Consider A86G A91U U120A, for which the self-cleavage amounted to 1.57. As for A86G A92G A96G C107U, the self-cleavage was found to be 0. Take G74C A114G A129U: the self-cleavage was determined as 0.01. On to G74U G83U A90G A126U, for which the self-cleavage was determined as 0.16. On to U72A C76U A94G, for which the self-cleavage stood at 0.16. As to U87A G104U U127C, the self-cleavage is 0.01.

On to A78U A92G A111G, for which the self-cleavage is 0.02.

For G83U A90G A95G U133C A140U, the self-cleavage was 1.26. G84A A95G U103C U130G: the self-cleavage is 1.25. As for G80A A92G A98G A118G, the self-cleavage amounted to 0.04. A78G U127A A129G: the self-cleavage turned out to be 0.28. Turning to G83A U102C U133G, the self-cleavage worked out at 0.18.

Regarding A82U A89U A91U A94G A95G U100A, the self-cleavage is 0.26.

As for G75A A96G U108C A114C, the self-cleavage stood at 0.

With U72C A89G U133C, the self-cleavage came to 0.53.

On to U87C C107A A125G, for which the self-cleavage came to 0. The value for U87C A89G A96G was 1.32; that for A89G A114G A125G was 0.14. For the variant G73A U102C A117G U120C, the self-cleavage stood at 0.01.

A82U A126G U127C: the self-cleavage turned out to be 0.04. Turning to C76A U124A U130C, the self-cleavage came to 0.04. With U87A A94G U122C, the self-cleavage was 1.85.

As to A90G A92G A111G, the self-cleavage stood at 0.03. Take U87C A95G U120C U122C: the self-cleavage is 0.13.

Regarding A90G A95G U103C G106A, the self-cleavage turned out to be 0.01.

U72C C81U A86U: the self-cleavage came out at 0.16. The value for A82U U103G A114U was 0.01. For G83A A92G U122A, the self-cleavage stood at 2.44. For U72A A96G A111U A116G U132C, the self-cleavage came to 0.01. Regarding U87C C109G A110G, the self-cleavage was 0. Take A94G C105U U120C: the self-cleavage is 0.03.

As for C77U A82G U100C, the self-cleavage came to 1.64. With U87A U102A A117G A126G U133C, the self-cleavage turned out to be 0.96. The value for A89G U102A A110G U127C was 0.02.

Turning to A82G U97C U102A U131C, the self-cleavage stood at 0.07.

With U72C A95G U97C C107G A111C A114G, the self-cleavage worked out at 0.01. U72A A94U U130C: the self-cleavage is 0.06. In the case of A86G A91G U97C U130C, the self-cleavage was 0.07. The value for A78C A86G A89U A118G was 0.1.

For A78U U108C A116G, the self-cleavage stood at 0. For U72A A92U A110U, the self-cleavage worked out at 0.24. With U87C A90G A96G, the self-cleavage came to 0.47.

Regarding A92G A110G A118G U120C A129U, the self-cleavage was 0.02. As to A82G U102C A114G, the self-cleavage came to 0.22. For the variant A91G A117U U122A U139C, the self-cleavage turned out to be 0.34. On to U72C A110C A114U, for which the self-cleavage came to 0.

Take A86U U108A U120C: the self-cleavage was 0. U87C A117G U127C: the self-cleavage is 0.68. For A92G A94U U108C, the self-cleavage came to 0.05. A89U A118G U120A: the self-cleavage is 2.62.

Turning to A90C U100C A114G A117G, the self-cleavage was found to be 0.99. Take A78U U87A U132C: the self-cleavage stood at 0.27. Turning to A89U A111G A125C, the self-cleavage was 0.02. A86U A89C A90G U103A A111G U127C: the self-cleavage was 0. For the variant A82G A90G A91G A117G, the self-cleavage is 0.3. Regarding U87C U103C U131C, the self-cleavage is 0.19. Turning to A90G A91G U97C U133A, the self-cleavage amounted to 0.87.

Take A82C U120A A129G: the self-cleavage was determined as 0.07.

Regarding G73A A91U U120A, the self-cleavage was found to be 0.12. A82G A86U C121U: the self-cleavage was determined as 2.04. For C71U A78U U102A U131C, the self-cleavage came to 0.05. To A82C A89U A111G U127C belongs 0.01; to U72C A90G A92G, 0.13.

As to G79U A126G A140G, the self-cleavage worked out at 0.03. On to A86G A110G U120C, for which the self-cleavage came out at 0.09. The value for A82G A90G A118G was 0.12. To A92U U100C U103C C105U belongs 0.14. Take U72C A95G A126G: the self-cleavage stood at 0.25. For A90G A98G A117G, the self-cleavage was 0.29.

As to A91G A92G U108C, the self-cleavage stood at 0.01. As for U72A A78U U120C, the self-cleavage was 0.09. A82G A90G A116G U122C: the self-cleavage is 0.03. C85U A96G U108C: the self-cleavage came out at 0.04. Consider A82U U100C A117G, for which the self-cleavage is 0.43. The value for A86G U102A U130C was 0.93; that for A89C A92C A116G A135G was 0.09. G75A G93U C112A: the self-cleavage turned out to be 0.01. As for A82U A86U U131G, the self-cleavage turned out to be 0.09. With A92G U120A U131C, the self-cleavage is 0.83. On to A91G A111G U130C, for which the self-cleavage was 0.01.

In the case of A78U A82G A95G U139G, the self-cleavage is 0.3.

Take A89U C107U A111U: the self-cleavage was 0.01. For the variant U72C A111G A126G, the self-cleavage came to 0.01. A94G A110C U122C U130C: the self-cleavage is 0.11. Take A90G A96U C113U A129G: the self-cleavage turned out to be 0.01. To U72C U103C U108C belongs 0; to A78G A92C U103A, 0.04; to A86U A96G G115A U120C, 0.02. Take U87C U124C U127C: the self-cleavage worked out at 0.3. Regarding C85U A89U U131A, the self-cleavage amounted to 0.64. Consider A82U U100A A116G, for which the self-cleavage was determined as 0.01. Regarding A82U A89G A126U, the self-cleavage came to 0.09. As to A86G A91G A94G U102G, the self-cleavage was determined as 0.25. For A92G A95G A134G, the self-cleavage is 2.77. Regarding G73C A90G U120A, the self-cleavage was 0.07. With A78G A82G U100A, the self-cleavage came out at 0.05.

As to A86G A114G U120C, the self-cleavage is 0.12. Take A78U A91G A110G: the self-cleavage came out at 0.02.

For A92G A117G A125U, the self-cleavage was found to be 0.67. On to A86G A116G U132C, for which the self-cleavage turned out to be 0.72. A94G U130C U139G: the self-cleavage is 0.85.

Turning to A78G A110G U130C, the self-cleavage is 0.02. For the variant A86G A98G C113U, the self-cleavage was 0.01. As for U72C U108A C128A, the self-cleavage came to 0.02.

Consider A86G U120C U133C, for which the self-cleavage is 1.23. As for A90G A94G A117G, the self-cleavage stood at 2.01. The value for U72C A86G U102C A110G A116G U132C was 0; that for A92G A98G C113U was 0. Take U72A A90G A91G: the self-cleavage stood at 0.16.

Take U87C A95G G123A: the self-cleavage came out at 1.59.

In the case of A78G A114U A118C, the self-cleavage stood at 0.01. With A94G C105A A126G, the self-cleavage amounted to 0.01.

As for U87C A96G A129G, the self-cleavage was 1.29. For the variant A86G U120A U127A A134G A135U, the self-cleavage was determined as 2.29. With U87C U102A U122C, the self-cleavage was found to be 0.08.

Take U87C A91U G106A: the self-cleavage was 0.08.

On to A82G A92C A126G, for which the self-cleavage is 0.53. C77A A92G A110G: the self-cleavage stood at 0.07.

With A90U U108A A110G, the self-cleavage turned out to be 0.01. The value for A94G U100C A118G was 2.34; that for A89G A110C U131C was 0.13; that for A94G U120G A126G was 1.04. As to A92G A96G U131C U132C, the self-cleavage worked out at 1.37. Turning to A82G A114G A116G, the self-cleavage is 0.07. The value for A82G A114G A116C was 0.01; that for U72A U87G A90G was 0.18. Consider C85G A95G A110G, for which the self-cleavage worked out at 0.15. Take A89U U127C A134G: the self-cleavage was 0.83. Take A94G U103C A110G: the self-cleavage was determined as 0.15.
